Among all 390,000 compounds or so, about 4,000 (1%) were called active. The shares of active, inactive and inconclusive entries below differ from those in the screen. Calls follow the shape of the dose curve; as a rule, active = well fitted inhibition curve with a large enough effect; inconclusive = small, poorly fitted or top-dose-only effect; inactive = no such curve, though single readings can be large or run the other way. A potency beside an inconclusive call is a rough fit, not a confirmed value.
Biological target: Thioredoxin reductase 1, cytoplasmic (Rattus norvegicus) (UniProt O89049)
Chain of UniProt O89049 (O89049 whole entry, looked up): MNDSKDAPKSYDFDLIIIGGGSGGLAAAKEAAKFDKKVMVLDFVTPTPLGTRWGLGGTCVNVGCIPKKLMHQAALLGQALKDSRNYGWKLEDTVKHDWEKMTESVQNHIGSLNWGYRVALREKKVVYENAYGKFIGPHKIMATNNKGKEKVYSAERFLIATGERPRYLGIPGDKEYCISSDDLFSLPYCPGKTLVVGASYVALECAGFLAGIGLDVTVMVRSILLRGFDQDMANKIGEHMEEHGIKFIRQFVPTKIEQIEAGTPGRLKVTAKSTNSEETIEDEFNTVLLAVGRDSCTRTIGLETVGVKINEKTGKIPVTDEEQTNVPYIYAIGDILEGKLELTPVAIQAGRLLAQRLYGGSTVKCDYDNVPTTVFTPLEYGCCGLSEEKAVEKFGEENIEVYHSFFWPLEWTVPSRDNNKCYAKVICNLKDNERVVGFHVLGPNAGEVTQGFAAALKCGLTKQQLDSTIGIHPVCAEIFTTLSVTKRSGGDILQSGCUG
Assay: qHTS Assay for Inhibitors of Mammalian Selenoprotein Thioredoxin Reductase 1 (TrxR1): qHTS; also: nearly all actives have a fitted effect of over 65% in size
Conditions: recombinant rTrxR1, NADPH fluorescence consumption, selenite substrate; series mostly up to 114 µM
Summary of the method: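 Rat TrxR1 (90 nM in the dispensed reagent) was pre-reduced with 400 uM NADPH for 5 min at room temperature, then incubated with compound for 15 min. After 400 uM selenite was added, NADPH fluorescence (Ex 340/Em 450 nm) was followed for 8 min.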
Potency is read from the fitted curve at half-maximal effect; tags tell the direction and shape of the fitted curve.

| Structure (SMILES) | Potency |
| --- | --- |
| COc1ccc(S(=O)(=O)NCC(c2ccc(N(C)C)cc2)N2CCCC2)cc1 (stereo not given) | inactive |
| Cc1cc(-c2ccccc2)nc(N/N=C/c2ccccc2)n1 | inactive |
| Cc1cccn2c(=O)c3cc(C(=O)NCCN4CCOCC4)c(=N)n(Cc4cccnc4)c3nc12 | inconclusive: 100 µM [inhibitor, single point] |
| CCN(CC)C(=O)Cc1c(OC)ccc2cc(Br)ccc12 | inactive |
| COc1cccc(C(=O)O/N=C/c2ccc(Sc3ccc(C)cc3)nc2)c1 | inactive |
| COc1cc(CN2CCN(CC#Cc3ccccc3)CC2CCO)cc(OC)c1 (stereo not given) | inconclusive: 89.1 µM [inhibitor, single point] |
| COc1ccc(C(=O)N2CCCC(CNC(=O)c3ccccc3Cl)C2)o1 (stereo not given) | inconclusive: 17.8 µM [inhibitor, full curve] |
| COc1ccccc1OCCSc1nc2ccc([N+](=O)[O-])cc2s1 | inconclusive: 70.8 µM [inhibitor, partial curve] |
| CC(=O)NC(=S)Nc1ccccc1C(=O)NC1CCCCC1 | inactive |
| Cc1cc(OCC(=O)NNC(=O)c2ccncc2)ccc1C(C)C | inactive |
| O=C(O)C1CSCN1S(=O)(=O)c1cccc2nsnc12 (stereo not given) | inconclusive: 39.8 µM [inhibitor, single point] |
| O=C(c1ccco1)N1CCN(C(=O)C(Cc2ccccc2)NS(=O)(=O)c2cccs2)CC1 (stereo not given) | inconclusive: 44.7 µM [inhibitor, partial curve, poor fit] |
| CCc1c(C)c(C#N)c2[nH]c3ccccc3n2c1=S | inconclusive: 3.16 µM [inhibitor, partial curve, poor fit] |
| O=C(/C=C/c1ccccc1)CCN1CCCCC1 | inconclusive: 0.316 µM [inhibitor, full curve, poor fit] |
| CCOc1ccccc1NS(=O)(=O)c1ccc2c(c1)CC(C)N2C(=O)C1CCC1 (stereo not given) | inactive |
| Cc1cc(C)cc(NC(=O)Cn2c(=O)n(-c3cc(C)cc(C)c3)c(=O)c3oc4ccccc4c32)c1 | inactive |
| CCOc1ccc(NC(=S)NC(=O)c2ccco2)cc1 | inconclusive: 89.1 µM [inhibitor, single point] |
| CCOC(=O)c1[nH]c(C)c(/C(O)=C2\C(=O)C(=O)N(CCCN(C)C)C2c2cccnc2)c1C (stereo not given) | inconclusive: 56.2 µM [inhibitor, single point] |
| O=C(NC(=S)Nc1cccc(O)c1)c1cncc(Br)c1 | inconclusive: 28.2 µM [inhibitor, partial curve] |
| Cc1ccc(-c2cc(C(=O)Nc3nccs3)c3ccccc3n2)o1 | inconclusive: 79.4 µM [inhibitor, single point] |
| N=c1c(C(=O)NCC2CCCO2)cc2c(=O)n3ccccc3nc2n1CCCO (stereo not given) | inconclusive: 70.8 µM [inhibitor, single point] |
| CCOC(=O)c1ccc(N2C(=O)CC(C(=O)OC)=C2C)cc1 | inconclusive: 31.6 µM [inhibitor, partial curve, poor fit] |
| CCOc1ccc(N=C(/C(C(=O)C(=O)N2CCOCC2)=C(\O)c2ccccc2)c2ccccc2)cc1 | inconclusive: 70.8 µM [inhibitor, partial curve, poor fit] |
| COc1ccc2nc(N3CCC(O)CC3)c(C#N)cc2c1 | inconclusive: 28.2 µM [inhibitor, single point] |

| Structure (SMILES) | Potency |
| --- | --- |
| COc1cc([N+](=O)[O-])ccc1-c1ccc(/C=C2\C(=O)ON=C2c2ccccc2)o1 | active: 7.94 µM |
| CCCNS(=O)(=O)c1ccc(CCC(=O)NCc2ccc3c(c2)OCO3)cc1 | inconclusive: 89.1 µM [inhibitor, single point] |
| Cc1cc(Cl)cc(Cl)c1OCC(=O)NCc1ccco1 | inconclusive: 39.8 µM [inhibitor, partial curve] |
| COc1cc2nc(N3CCN(C)CC3)nc(NC3CCN(C)CC3)c2cc1OC | inconclusive: 79.4 µM [inhibitor, single point] |
| CCCc1[nH][nH]c(=O)c1C(c1cccc(Cl)c1)C(C#N)C#N (stereo not given) | inconclusive: 1.78 µM [inhibitor, partial curve, poor fit] |
| N#C/C(=C\c1ccc(N2CCOCC2)o1)C(=O)NC1CCCCC1 | inconclusive: 39.8 µM [inhibitor, partial curve] |
| Fc1ccc2nc(C3CCN(Cc4nc(CC5CC5)no4)CC3)[nH]c2c1 | inconclusive: 79.4 µM [inhibitor, partial curve, poor fit] |
| Cc1ccc(/C=C2\C(=O)NC(=O)N2C)o1 | active: 50.1 µM |
| COc1ccc(C(=O)COC(=O)/C=C/c2ccco2)cc1F | inconclusive: 50.1 µM [inhibitor, partial curve, poor fit] |
| NCCCN(Cc1ccccc1)c1ccc(Br)cn1 | inactive |
| COc1ccc(-n2nc3c(c2NC(=O)CCl)CSC3)cc1 | active: 14.1 µM |
| CC1(C)CC(N2CCN(c3ccccc3)CC2)=CC(=[N+]2CCCC2)C1 | inconclusive: 20 µM [inhibitor, single point] |
| CCOC(=O)c1c(S(=O)(=O)NCCCc2ccco2)c(C)n(C)c1C | inconclusive: 56.2 µM [inhibitor, partial curve] |
| O=C(CCNC(=O)c1ccccc1Cl)Nc1cc(C(F)(F)F)ccc1N1CCCC1 | inactive |
| O=C(CCNC(=O)c1ccccc1)NN=Cc1ccc(Br)o1 | inconclusive: 89.1 µM [inhibitor, single point] |
| Cn1c2c(c(=O)n(C)c1=O)C(c1ccccc1Cl)C(C#N)=C(N)O2 (stereo not given) | inconclusive: 39.8 µM [inhibitor, partial curve] |
| Cc1ccc(C(=O)CCC(=O)OCc2nnc(-c3ccccc3)o2)cc1 | inactive |
| Oc1ccc(-c2nc(-c3ccc(O)c(O)c3)cs2)cc1 | inconclusive: 79.4 µM [inhibitor, single point] |
| C[C@@]12CCC=C[C@H]1[C@H](c1ccc3ccccc3c1)N(Cc1ccccc1)C2=O | inconclusive: 70.8 µM [inhibitor, partial curve] |
| CC12CCC=CC1C(c1cccc(Br)c1)N(Cc1ccccc1)C2=O (stereo not given) | inconclusive: 25.1 µM [inhibitor, single point] |
| COC(=O)C1=C(N)OC2=C(C(=O)CC(C)(C)C2)C1c1ccoc1 (stereo not given) | inconclusive: 22.4 µM [inhibitor, partial curve, poor fit] |
| COc1ccccc1N1CCN(C(=O)CSc2nc(-c3ccco3)cc(C(F)(F)F)n2)CC1 | inconclusive: 10 µM [inhibitor, partial curve, poor fit] |
| Cc1ccc2nc(-c3ccc(C)o3)c(Nc3ccc(Cl)cc3)n2c1 | inconclusive: 79.4 µM [inhibitor, single point] |
| CCCC(C(=O)Nc1ccc(S(=O)(=O)Nc2nccs2)cc1)c1ccccc1 (stereo not given) | inactive |

| Structure (SMILES) | Potency |
| --- | --- |
| O=C(O)c1ccc(NC(=S)NC(=O)c2cccnc2)cc1 | inactive |
| O=C(NC(=S)Nc1cccc(-c2ccc(CO)o2)c1)c1cccs1 | active: 39.8 µM |
| O=C(c1ccccc1)C1C(=O)c2ccccc2C1=O | inconclusive: 70.8 µM [inhibitor, partial curve] |
| COc1[nH]c(/N=C/c2ccccc2)c(C#N)c1C#N | inconclusive: 14.1 µM [inhibitor, partial curve, poor fit] |
| COc1ccc(CCn2c(C)cc(C(=O)CCl)c2C)cc1OC | inconclusive: 7.94 µM [inhibitor, full curve] |
| CCN(CC)c1ccc(C(=O)OCC(=O)NC2CCCCC2C)cc1 (stereo not given) | inactive |
| CS(=O)(=O)c1ccc(C(=O)OC2CCOC2=O)cc1[N+](=O)[O-] (stereo not given) | inconclusive: 3.16 µM [inhibitor, full curve] |
| COc1ccccc1-n1c(=O)n(C)c2c(C(N)=O)nc(-c3cc(OC)c(OC)c(OC)c3)nc21 | inactive |
| CCCCN1C(=O)/C(=c2\sc3nc(=O)c(-c4ccccc4)nn3c2=O)c2ccccc21 | inconclusive: 35.5 µM [inhibitor, single point] |
| C=CCn1c(O)c(N=NC(=O)OC(C)(C)C)c2ccccc21 | inactive |
| Cc1ccc(NC(=S)Nc2ncccc2C)c(C)c1 | inconclusive: 3.16 µM [inhibitor, full curve] |
| CCC(=O)N1CCc2cc(S(=O)(=O)NC(C(=O)Nc3cc(OC)cc(OC)c3)C(C)C)ccc21 (stereo not given) | inactive |
| CCOc1ccc(S(=O)(=O)Nc2ccc3c(c2)n(C)c(=O)n3C)cc1 | inactive |
| COc1ccc(/C=C/C(=O)NC(=S)Nc2ccc(S(N)(=O)=O)cc2)cc1OC | inactive |
| N#CCCn1c2ccccc2c2nc3ccccc3nc21 | inactive |
| CC(C)(C)OC(=O)N1CCC2(CC1)C(C#N)=C(N)OC1=C2C(=O)CCC1 | inconclusive: 70.8 µM [inhibitor, partial curve, poor fit] |
| Cc1ccc(S(=O)(=O)c2nc(-c3ccc(F)cc3)oc2N2CCOCC2)cc1 | inconclusive: 17.8 µM [inhibitor, partial curve, poor fit] |
| Cc1cccc(NC(=O)c2nc(S(=O)(=O)Cc3ccccc3)ncc2Cl)c1 | active: 5.62 µM |
| CCOC(=O)CC1=C(C(=O)OCC)C(c2ccc(OC)cc2OC)C(C#N)=C(N)O1 (stereo not given) | inactive |
| Cc1cc(C(=O)Nc2sccc2C(N)=O)c(C)o1 | inconclusive: 56.2 µM [inhibitor, partial curve, poor fit] |
| CNc1ccccc1C(C)(C)c1cc(-c2ccco2)n[nH]1 | inconclusive: 70.8 µM [inhibitor, single point] |
| O=S1(=O)NC(=NCC(c2ccco2)N2CCCCC2)c2ccccc21 (stereo not given) | inconclusive: 56.2 µM [inhibitor, partial curve, poor fit] |
